Test results from article PMC4336329 (PLoS ONE, 2015).
Hit rate of the full screen: of about 310,000 compounds, about 14,000 (4.5%) showed an effect of 50% or more. Effects have a minus sign here. The list shows a part of the results.

The molecules below were run against human ether-à-go-go-related gene (hERG) potassium channel (human, UniProt Q12809) (assay: primary screen, population patch clamp on CHO cells stably expressing hERG).
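Further: peak tail current of the secondary pulse compared with the same well before compound.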

Chain of human ether-à-go-go-related gene (hERG) potassium channel (Q12809 whole entry, looked up): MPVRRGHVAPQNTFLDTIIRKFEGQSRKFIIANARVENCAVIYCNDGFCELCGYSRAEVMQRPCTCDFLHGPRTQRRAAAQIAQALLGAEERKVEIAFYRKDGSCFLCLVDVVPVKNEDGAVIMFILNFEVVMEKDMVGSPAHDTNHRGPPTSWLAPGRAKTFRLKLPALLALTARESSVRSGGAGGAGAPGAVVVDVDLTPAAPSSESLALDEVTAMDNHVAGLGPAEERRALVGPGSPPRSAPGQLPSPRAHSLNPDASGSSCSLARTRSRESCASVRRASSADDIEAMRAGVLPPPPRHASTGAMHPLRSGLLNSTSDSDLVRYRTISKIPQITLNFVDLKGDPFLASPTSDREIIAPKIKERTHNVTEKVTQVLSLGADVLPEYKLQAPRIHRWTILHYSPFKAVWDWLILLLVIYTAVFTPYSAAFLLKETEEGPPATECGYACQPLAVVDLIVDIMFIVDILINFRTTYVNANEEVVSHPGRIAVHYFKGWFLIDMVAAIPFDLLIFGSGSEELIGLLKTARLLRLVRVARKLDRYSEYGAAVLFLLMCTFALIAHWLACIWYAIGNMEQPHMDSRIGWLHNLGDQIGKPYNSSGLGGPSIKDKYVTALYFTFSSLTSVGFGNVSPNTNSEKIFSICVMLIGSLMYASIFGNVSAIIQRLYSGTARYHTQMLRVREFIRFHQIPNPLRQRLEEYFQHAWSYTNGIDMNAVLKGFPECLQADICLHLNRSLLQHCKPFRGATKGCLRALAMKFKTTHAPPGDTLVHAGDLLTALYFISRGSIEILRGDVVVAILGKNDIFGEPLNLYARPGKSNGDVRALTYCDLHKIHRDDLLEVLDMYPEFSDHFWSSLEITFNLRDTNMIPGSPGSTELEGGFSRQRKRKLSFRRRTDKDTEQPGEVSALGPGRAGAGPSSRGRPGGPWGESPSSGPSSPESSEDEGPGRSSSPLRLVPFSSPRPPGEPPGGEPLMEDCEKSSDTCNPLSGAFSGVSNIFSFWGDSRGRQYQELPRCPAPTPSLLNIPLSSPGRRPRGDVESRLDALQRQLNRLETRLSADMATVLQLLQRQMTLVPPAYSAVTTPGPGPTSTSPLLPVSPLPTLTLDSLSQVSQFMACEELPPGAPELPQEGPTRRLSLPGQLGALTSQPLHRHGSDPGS

SMILES	hERG current change (%, negative = inhibition) at 10uM
S=c1[nH]nc(-c2ccco2)n1/N=C/c1ccc(Cl)cc1Cl	-45.5%
CCc1nn(CC(=O)N2CCN(c3ccc(F)cc3)CC2)c(=O)c2cc3occc3n12	-0.597%
COc1ccc(C2CC(=O)c3sc(NC(C)=O)nc3C2)cc1 (stereo not shown)	-1.49%
CCC(CO)NS(=O)(=O)c1cc(-c2nn(C)c(=O)c3ccccc23)ccc1C (stereo not shown)	-3.69%
Cc1ccc(S(=O)(=O)N2CCCC2CNC(=O)C(=O)Nc2ccccc2)cc1 (stereo not shown)	-1.63%
O=C(NCc1cccs1)C1CCCN1C(=O)Nc1ccccc1Cl (stereo not shown)	-13%
COCCNc1nnc(SCC(=O)NC(=O)c2ccccc2OC)s1	1.75%
COc1ccc(NC(=O)/C(C#N)=C/c2c(C)nn(-c3ccc(F)cc3)c2Cl)cc1OC	12.1%
Cc1c(C(=O)NN)sc(=S)n1C	13.2%
O=[N+]([O-])c1cccc(C(=S)N2CCCC2)c1	15.6%
O=C(CSc1nc2ccccc2s1)NC1CCS(=O)(=O)C1 (stereo not shown)	12.9%
S=C(NC1CC1)SCc1ccco1	-11.5%
COc1ccc(S(=O)(=O)N2CCC(C(=O)NCc3ccncc3)CC2)cc1	-8.83%
CCOC(=O)c1c(/N=C/C2C(=O)CCCC2=O)sc2c1CCCC2	11.1%
Cc1ccc(N2C(=O)c3ccccc3C(C)(C)C2=O)cc1	9.5%
CNCCOc1nc(N2CCOCC2)nc(C)c1[N+](=O)[O-]	13.9%
COc1cccc(CNC(=O)CCS(=O)(=O)c2ccc3c(c2)oc(=O)n3C)c1	3.87%
COc1cccc(OC)c1C(=O)Nc1ccc(C)cc1C(=O)c1ccccc1	-8.33%
CCCC(C)NC(=O)c1ccc(F)cc1 (stereo not shown)	13.2%
CCn1c(SCC(=O)Nc2nc(-c3ccccc3)cs2)nnc1-c1ccccc1	-66.6%
Nc1nc(-c2ccccc2)c(-c2ccccc2)s1	-2.18%
Fc1ccc(Nc2ccnc(Nc3ccc(F)cc3)n2)cc1	8.33%

SMILES	hERG current change (%, negative = inhibition) at 10uM
COc1ccc(C2C(C(=O)N3CCCCC3)c3ccccc3C(=O)N2C)cc1 (stereo not shown)	-1.72%
Cc1nnc(NCCc2ccccc2)[nH]c1=O	-18.8%
O=C(Cc1ccccc1)N1CCN(C2CCCCCC2)CC1.O=C(O)C(=O)O	-19.2%
CSc1nc(Cl)cc(Nc2ccccc2N)n1	-0.448%
CC(C)(C)NC(=O)Cn1c(-c2nonc2N)nc2ccccc21	6.64%
Cc1ccc(C(=O)c2c(NC(=O)c3ccncc3)sc3c2CCCC3)cc1	-3.98%
COc1cccc(CNS(=O)(=O)c2cc3c(cc2C)n(C)c(=O)c(=O)n3C)c1	-8.04%
O=C(CN1C(=O)NC2(CCCCCC2)C1=O)NCCc1ccccc1	1.14%
COc1cccc(N2CCN(c3cnc4ccccc4n3)CC2)c1	-5.16%
O=C(O)CCCC(=O)Nc1ccc(N2CCCC2)cc1	5.13%
CCn1c(SCC(=O)N(C)c2c(N)n(Cc3ccccc3)c(=O)[nH]c2=O)nc2ccccc21	7.16%
CC(=O)Nc1cccc(NC(=O)c2oc3ccccc3c2C)c1	-29.3%
COC(=O)c1ccc(NC(=O)CNCc2ccncc2)cc1.O=C(O)C(=O)O	18.1%
Oc1c(Br)cc(/C=N/NC(=S)NCc2ccco2)cc1Br	23.9%
COCCSc1ccccc1C(=O)Nc1ccc(Cl)cn1	-10.3%
Cc1cccc(NC(=O)C2CCN(S(=O)(=O)c3ccc4c(c3)NC(=O)CO4)CC2)c1C	14%
CCN(CC)CCNC(=O)c1ccc(NC(=O)c2ccccc2-c2ccc(C(F)(F)F)cc2)cc1	-24.2%
O=C(NCC1OCCc2ccccc21)C1COc2ccccc2O1 (stereo not shown)	2.5%
CCC(=O)c1c(O)n(C2CCCCCC2)c(=O)[nH]c1=O	15.8%
Fc1ccc(CNCc2ccccc2Cl)cc1.O=C(O)C(=O)O	-5.05%
CCOc1ccc(NC(=O)CN(C)C(=O)c2cn(-c3ccccc3)nc2-c2cccs2)cc1OCC	-0.539%
Cc1ccccc1-n1c(=O)cc(NCC2CCCO2)[nH]c1=O (stereo not shown)	4.82%

SMILES	hERG current change (%, negative = inhibition) at 10uM
Brc1ccc(-c2csc3ncnc(-n4nnc5ccccc54)c23)cc1	-4.63%
O=C(N/N=C/c1cc(Cl)ccc1O)c1cccnc1	15.6%
CCCCCCCCCCOC(=O)Cn1c(COc2ccc(OC)cc2)[n+](C)c2ccccc21.[Cl-]	-83.3%
CCCCNC(=O)N(O)C1N(/N=C/c2ccccc2O)C(=S)SC1(C)C (stereo not shown)	-0.0707%
Cc1ccc(S(=O)(=O)N2CCN(Cc3ccco3)CC2)c(C)c1	-35.6%
CCN(CC)CCCNC(=O)CCC(=O)Nc1ccc2nc(N3CCC(C)CC3)cc(C)c2c1	10%
CCC(C)(C)n1nnnc1C(c1cc2ccc(OC)cc2[nH]c1=O)N1CCc2ccccc21 (stereo not shown)	-1.92%
Cc1ccc(NC(=O)CSc2nnc(-c3cccnc3)s2)cc1	-4.36%
COc1ccc(OCc2ccc(C(=O)O)cc2)cc1	8.41%
O=C(COc1ccc(Cl)cc1Cl)Nn1c(=S)[nH]c2ncccc2c1=O	-38.1%
Cc1sc2ncnc(N3CCC(C(=O)NNC(=O)COc4ccccc4Cl)CC3)c2c1C	-38.6%
COc1cccc(CNC(=O)CCC(=O)N2Cc3cccc(OC)c3Oc3ncccc32)c1OC	2.96%
CC(C)N(C1=CC(=O)OC12CCCCC2)C(C)C	-0.582%
O=C(Nc1cccc(-c2nc3ccccc3c(=O)o2)c1)c1ccccc1	13.4%
CC1=C(C(=O)OC(C)C)[C@]2(C(=O)N(CC(N)=O)c3ccccc32)C(C#N)=C(N)O1	10.7%
COc1ccc(C(=O)NCC(=O)OCC(=O)c2ccc3c(c2)NC(=O)CO3)cc1OC	-22%
Cc1ccc(C(c2sc3nc(C)nn3c2O)N2CCOCC2)cc1 (stereo not shown)	9.56%
CCOc1ccc(OCc2ccc(C(=O)N/N=C(\C)c3ccccn3)cc2)cc1	6.67%
O=C(Nc1ccc(F)cc1)N1CCN(CCc2ccccc2)CC1	-52.3%
Oc1ccc(C(=S)N2CCCC2)cc1	14.4%
CCNc1c([N+](=O)[O-])c(=O)n(CC)c2ccccc12	-5.73%
CC(NC(=O)c1cn(C)c2ccc(S(=O)(=O)N3CCCC3)cc2c1=O)c1ccc2c(c1)OCCO2 (stereo not shown)	11.3%

SMILES	hERG current change (%, negative = inhibition) at 10uM
COc1cc(C(C)=O)ccc1OCC(=O)NCC1(N2CCCCC2)CCCCC1	-11.4%
CCC1(c2ccccc2)NC(=O)N(CC(=O)Nc2ccc(S(=O)(=O)N3CC(C)CC(C)C3)cc2)C1=O (stereo not shown)	15.2%
Cc1ccccc1NC(=O)COc1nsnc1N1CCOCC1	5.72%
Cc1nn(-c2ccc(F)cc2)c(Cl)c1/C=C/C(=O)N1CCNC(=O)C1	7.33%
CCc1cccc(CC)c1NC(=O)CN1CCN(c2ccccc2)CC1.Cl	-15.7%
COc1cccc(NC(=O)CN(C)C(=O)c2cccc(S(=O)(=O)N3CCN(c4ccccc4)CC3)c2)c1	4.56%
O=C(CN1C(=O)c2ccccc2S1(=O)=O)N1CCN(Cc2ccc3c(c2)OCO3)CC1	-12.8%
CC(C)(C)c1ccc(C(=O)c2c[nH]c(C(=O)O)c2)cc1	8.49%
CCOc1ccc(CNC(=O)C(=O)c2cn(CC(=O)N3CCOCC3)c3ccccc23)cc1OC	17.1%
O=c1nc2ccccc2c2n1CC(CN1CCN(c3ccccc3F)CC1)N2 (stereo not shown)	-50.3%
O=C(CSc1ncccn1)NC1CCS(=O)(=O)C1 (stereo not shown)	4.98%
COc1ccc(-c2noc(CCC(=O)N3CCN(c4cc(C)ccc4C)CC3)n2)cc1	-4.34%
CC(C)[C@H](NC(=O)c1ccccc1)C(=O)OCC(=O)N1CC2(C)CC1CC(C)(C)C2 (stereo partly shown)	-17.2%
Cc1ccc(C(=O)NCCSc2snnc2C)cc1	17.6%
Cc1cc(C)cc(C(=O)NCC(=O)OCC(=O)NCc2ccco2)c1	22.8%
O=C(Nc1ccccc1N1CCN(c2ccccc2)CC1)C12CC3CC(CC(C3)C1)C2	-3.41%
O=C(NCc1ccccc1)c1nc2ccccc2s1	-26.3%
COc1ccc(/C(N)=N/OC(=O)c2cccc([N+](=O)[O-])c2)cc1	-2.06%
c1cncc(Nc2nc(-c3cccnc3)cs2)c1	1.98%
CC1C(=O)N2CCCc3cc(NC(=O)COc4ccccc4)cc1c32 (stereo not shown)	-22.4%
CCOc1ccccc1OCC(=O)NNC(=O)Cn1cnc2c1c(=O)n(C)c(=O)n2C	23.4%
Cc1cc(C)cc(NC(=O)CSc2nnc(CNC(=O)c3ccco3)o2)c1	-19.9%
